In article PMC12231567:
These are yes or no findings as the source states them, for the method shown. For part of these data: Binding seen in cells or lysates may run through a third protein. Some binding calls cover weakened binding; strength is not graded here. Sequences can lack the tags named with a protein. Blank lines part the entries; values can stand above or below the molecule they belong to.

Protein sequences, listed by entry. Tags and fused reporters are not part of them.
UniProt Q94AH6: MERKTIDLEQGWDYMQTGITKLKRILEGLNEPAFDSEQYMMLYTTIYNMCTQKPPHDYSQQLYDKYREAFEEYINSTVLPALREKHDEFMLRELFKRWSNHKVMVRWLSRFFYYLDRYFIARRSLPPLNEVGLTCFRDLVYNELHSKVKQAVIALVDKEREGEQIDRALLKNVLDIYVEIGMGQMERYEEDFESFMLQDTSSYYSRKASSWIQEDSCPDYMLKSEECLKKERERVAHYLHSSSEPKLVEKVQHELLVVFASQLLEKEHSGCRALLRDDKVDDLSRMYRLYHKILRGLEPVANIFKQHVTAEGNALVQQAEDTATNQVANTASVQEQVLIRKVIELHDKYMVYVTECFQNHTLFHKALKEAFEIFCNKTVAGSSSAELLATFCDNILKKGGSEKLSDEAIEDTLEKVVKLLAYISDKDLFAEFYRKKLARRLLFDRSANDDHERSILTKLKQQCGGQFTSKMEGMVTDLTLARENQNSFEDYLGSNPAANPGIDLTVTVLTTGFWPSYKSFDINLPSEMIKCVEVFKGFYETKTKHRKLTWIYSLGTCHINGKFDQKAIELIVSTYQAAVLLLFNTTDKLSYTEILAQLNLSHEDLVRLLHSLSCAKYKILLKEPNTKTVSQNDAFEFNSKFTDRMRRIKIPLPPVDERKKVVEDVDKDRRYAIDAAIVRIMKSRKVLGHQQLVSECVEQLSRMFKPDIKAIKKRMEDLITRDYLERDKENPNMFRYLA

How the values were obtained:
[1] = biological target: T1, αKNL2 (KINETOCHORE NULL2), full length, fused to the GAL4 DNA-binding domain (Arabidopsis thaliana) (UniProt F4KCE9); experiment: two-hybrid; cotransformation of pGBKT7 (BD, bait) and pGADT7 (AD, prey) into S. cerevisiae Y2H Gold; drop dilutions on -LT and -LTH (triple dropout) medium, 30 °C
T1 sequence: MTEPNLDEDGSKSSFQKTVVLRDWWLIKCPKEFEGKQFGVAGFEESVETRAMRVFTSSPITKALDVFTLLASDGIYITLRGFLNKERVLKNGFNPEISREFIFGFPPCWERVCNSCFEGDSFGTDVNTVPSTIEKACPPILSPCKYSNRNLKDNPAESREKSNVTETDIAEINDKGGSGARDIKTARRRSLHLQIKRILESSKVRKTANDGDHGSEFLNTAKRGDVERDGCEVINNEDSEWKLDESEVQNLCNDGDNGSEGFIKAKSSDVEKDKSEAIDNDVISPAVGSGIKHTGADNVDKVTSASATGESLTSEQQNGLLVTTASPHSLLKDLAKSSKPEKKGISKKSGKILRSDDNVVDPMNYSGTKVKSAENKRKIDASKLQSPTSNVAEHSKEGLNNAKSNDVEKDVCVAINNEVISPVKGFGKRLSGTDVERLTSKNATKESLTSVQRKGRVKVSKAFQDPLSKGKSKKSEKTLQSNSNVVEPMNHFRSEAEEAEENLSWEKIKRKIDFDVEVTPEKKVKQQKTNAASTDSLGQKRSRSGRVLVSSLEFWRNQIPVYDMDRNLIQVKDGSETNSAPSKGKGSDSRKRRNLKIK

[2] = biological target: T2, αKNL2-C (C-terminal fragment of αKNL2, 364 to 599 aa) fused to the GAL4 DNA-binding domain (Arabidopsis thaliana) (UniProt F4KCE9); experiment: as above
T2 sequence: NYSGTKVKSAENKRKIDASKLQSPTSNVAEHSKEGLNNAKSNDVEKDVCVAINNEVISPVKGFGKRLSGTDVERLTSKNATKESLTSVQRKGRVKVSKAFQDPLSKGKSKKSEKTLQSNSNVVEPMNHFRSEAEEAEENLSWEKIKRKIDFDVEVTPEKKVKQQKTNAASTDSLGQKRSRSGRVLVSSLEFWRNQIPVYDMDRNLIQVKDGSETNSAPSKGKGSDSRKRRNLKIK

[3] = biological target: T3, APC10 fused to a Venus fragment and HA (BiFC and Co-IP) (Arabidopsis thaliana) (UniProt Q9ZPW2); experiment: split reporter; BiFC in N. benthamiana leaves co-infiltrated with A. tumefaciens GV3101 carrying the VENn and VENc fusions (both directions) and HC-Pro; Venus fluorescence in nuclei; some combinations also scored after MG115
T3 sequence: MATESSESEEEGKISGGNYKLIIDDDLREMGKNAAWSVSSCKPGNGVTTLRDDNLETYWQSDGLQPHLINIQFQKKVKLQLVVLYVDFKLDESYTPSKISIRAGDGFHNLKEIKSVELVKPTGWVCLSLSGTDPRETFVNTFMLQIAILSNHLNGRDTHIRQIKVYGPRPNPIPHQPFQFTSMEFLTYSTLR

[4] = biological target: T4, APC2 fused to a Venus fragment (BiFC) (Arabidopsis thaliana) (UniProt Q8H1U5); experiment: as above
T4 sequence: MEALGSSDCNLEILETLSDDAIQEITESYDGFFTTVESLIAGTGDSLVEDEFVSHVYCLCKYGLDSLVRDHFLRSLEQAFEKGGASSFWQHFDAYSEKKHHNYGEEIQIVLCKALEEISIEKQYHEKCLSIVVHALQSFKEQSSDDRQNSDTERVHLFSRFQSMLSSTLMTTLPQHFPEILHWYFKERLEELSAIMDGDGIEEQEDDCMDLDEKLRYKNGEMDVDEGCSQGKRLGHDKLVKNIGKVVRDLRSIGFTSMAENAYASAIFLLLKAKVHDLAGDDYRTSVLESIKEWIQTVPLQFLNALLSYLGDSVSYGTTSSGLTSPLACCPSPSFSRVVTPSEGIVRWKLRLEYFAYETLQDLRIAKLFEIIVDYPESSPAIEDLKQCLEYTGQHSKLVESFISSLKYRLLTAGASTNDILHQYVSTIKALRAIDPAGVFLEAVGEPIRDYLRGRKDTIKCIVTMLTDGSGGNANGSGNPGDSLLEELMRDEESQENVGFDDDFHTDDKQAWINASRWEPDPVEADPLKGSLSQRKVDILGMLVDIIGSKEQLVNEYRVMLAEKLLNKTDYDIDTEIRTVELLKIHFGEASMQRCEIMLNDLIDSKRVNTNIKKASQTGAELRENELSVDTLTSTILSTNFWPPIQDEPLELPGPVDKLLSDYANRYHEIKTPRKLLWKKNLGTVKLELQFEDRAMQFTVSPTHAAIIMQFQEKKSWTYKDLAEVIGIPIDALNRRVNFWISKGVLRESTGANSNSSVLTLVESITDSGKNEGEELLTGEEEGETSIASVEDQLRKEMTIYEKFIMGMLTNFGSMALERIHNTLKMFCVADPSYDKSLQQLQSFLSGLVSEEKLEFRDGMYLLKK

[5] = biological target: T5, CDC20.1 fused to a Venus fragment and HA (BiFC and Co-IP) (Arabidopsis thaliana) (UniProt Q9SZA4); experiment: as above
T5 sequence: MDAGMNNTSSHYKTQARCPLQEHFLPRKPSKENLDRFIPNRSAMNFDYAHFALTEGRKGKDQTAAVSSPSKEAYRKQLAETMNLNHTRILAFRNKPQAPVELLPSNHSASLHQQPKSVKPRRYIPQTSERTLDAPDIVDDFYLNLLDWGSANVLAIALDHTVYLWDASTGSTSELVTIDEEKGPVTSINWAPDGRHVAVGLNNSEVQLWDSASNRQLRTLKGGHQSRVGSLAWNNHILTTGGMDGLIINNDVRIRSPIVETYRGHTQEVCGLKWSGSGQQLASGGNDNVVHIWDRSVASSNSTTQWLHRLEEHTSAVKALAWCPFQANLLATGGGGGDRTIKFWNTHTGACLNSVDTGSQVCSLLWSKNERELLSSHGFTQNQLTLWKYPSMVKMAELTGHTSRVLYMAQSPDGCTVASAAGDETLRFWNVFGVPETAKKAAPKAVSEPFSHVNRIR

B3: αKNL2-N (1 to 363 aa) fused to a Venus fragment (BiFC) (domain or fragment, UniProt F4KCE9 1-363)
chain: MTEPNLDEDGSKSSFQKTVVLRDWWLIKCPKEFEGKQFGVAGFEESVETRAMRVFTSSPITKALDVFTLLASDGIYITLRGFLNKERVLKNGFNPEISREFIFGFPPCWERVCNSCFEGDSFGTDVNTVPSTIEKACPPILSPCKYSNRNLKDNPAESREKSNVTETDIAEINDKGGSGARDIKTARRRSLHLQIKRILESSKVRKTANDGDHGSEFLNTAKRGDVERDGCEVINNEDSEWKLDESEVQNLCNDGDNGSEGFIKAKSSDVEKDKSEAIDNDVISPAVGSGIKHTGADNVDKVTSASATGESLTSEQQNGLLVTTASPHSLLKDLAKSSKPEKKGISKKSGKILRSDDNVVDPM
binding [3]: binds | binding [4]: binds | binding [5]: binds

B5: αKNL2^ΔD-box2-VENn (protein, UniProt F4KCE9)
chain: MTEPNLDEDGSKSSFQKTVVLRDWWLIKCPKEFEGKQFGVAGFEESVETRAMRVFTSSPITKALDVFTLLASDGIYITLRGFLNKERVLKNGFNPEISREFIFGFPPCWERVCNSCFEGDSFGTDVNTVPSTIEKACPPILSPCKYSNRNLKDNPAESREKSNVTETDIAEINDKGGSGARDIKTARHLQIKRILESSKVRKTANDGDHGSEFLNTAKRGDVERDGCEVINNEDSEWKLDESEVQNLCNDGDNGSEGFIKAKSSDVEKDKSEAIDNDVISPAVGSGIKHTGADNVDKVTSASATGESLTSEQQNGLLVTTASPHSLLKDLAKSSKPEKKGISKKSGKILRSDDNVVDPMNYSGTKVKSAENKRKIDASKLQSPTSNVAEHSKEGLNNAKSNDVEKDVCVAINNEVISPVKGFGKRLSGTDVERLTSKNATKESLTSVQRKGRVKVSKAFQDPLSKGKSKKSEKTLQSNSNVVEPMNHFRSEAEEAEENLSWEKIKRKIDFDVEVTPEKKVKQQKTNAASTDSLGQKRSRSGRVLVSSLEFWRNQIPVYDMDRNLIQVKDGSETNSAPSKGKGSDSRKRRNLKIK
binding [5]: binds

B6: UBC20 fused to the GAL4 activation domain (enzyme, UniProt Q8L7T3 1-180)
chain: MAAVNGYQGNTPADPPASNGSKQPAAPTKTVDSQSVLKRLQSELMGLMMGGGPGISAFPEEDNIFCWKGTITGSKDTVFEGTEYRLSLSFSNDYPFKPPKVKFETCCFHPNVDVYGNICLDILQDKWSSAYDVRTILLSIQSLLGEPNISSPLNTQAAQLWSNQEEYRKMVEKLYKPPSA
binding [2]: no binding

Continued, values first:

binding [1]: no binding | binding [2]: no binding
Molecule: CUL1 fused to the GAL4 activation domain (from UniProt Q94AH6 1-738)

binding [2]: no binding
B1: UBC19 fused to the GAL4 activation domain (enzyme, UniProt Q9LJZ5 1-181)
chain: MATVNGYTGNTPAATTPAATGSKQSAPPTKTVDSHSVLKRLQSELMGLMMGADPGISAFPEEDNIFCWKGTITGSKDTVFEGTEYRLSLTFSNDYPFKSPKVKFETCCFHPNVDLYGNICLDILQDKWSSAYDVRTILLSIQSLLGEPNISSPLNNQAAQLWSNQEEYRKMVEKLYKPLNA

binding [1]: no binding | binding [2]: no binding
B2: CUL3 fused to the GAL4 activation domain (protein, UniProt Q9ZVH4 1-732)
chain: MSNQKKRNFQIEAFKHRVVVDPKYADKTWQILERAIHQIYNQDASGLSFEELYRNAYNMVLHKFGEKLYTGFIATMTSHLKEKSKLIEAAQGGSFLEELNKKWNEHNKALEMIRDILMYMDRTYIESTKKTHVHPMGLNLWRDNVVHFTKIHTRLLNTLLDLVQKERIGEVIDRGLMRNVIKMFMDLGESVYQEDFEKPFLDASSEFYKVESQEFIESCDCGDYLKKSEKRLTEEIERVAHYLDAKSEEKITSVVEKEMIANHMQRLVHMENSGLVNMLLNDKYEDLGRMYNLFRRVTNGLVTVRDVMTSHLREMGKQLVTDPEKSKDPVEFVQRLLDERDKYDKIINTAFGNDKTFQNALNSSFEYFINLNARSPEFISLFVDDKLRKGLKGITDVDVEVILDKVMMLFRYLQEKDVFEKYYKQHLAKRLLSGKTVSDDAERSLIVKLKTECGYQFTSKLEGMFTDMKTSEDTMRGFYGSHPELSEGPTLIVQVLTTGSWPTQPAVPCNLPAEVSVLCEKFRSYYLGTHTGRRLSWQTNMGTADIKAIFGKGQKHELNVSTFQMCVLMLFNNSDRLSYKEIEQATEIPAADLKRCLQSLACVKGKNVIKKEPMSKDIGEEDLFVVNDKFTSKFYKVKIGTVVAQKETEPEKQETRQRVEEDRKPQIEAAIVRIMKSRKILDHNNIIAEVTKQLQPRFLANPTEIKKRIESLIERDFLERDSTDRKLYRYLA

binding [5]: no binding
B4: αKNL2^ΔD-box1-VENn (protein, UniProt F4KCE9)
chain: MTEPNLDEDGSKSSFQKTVVLRDWWLIKCPKEFEGKQFGVAGFEESVETRAMRVFTSSPITKALDVFTLLASDGIYITLNKERVLKNGFNPEISREFIFGFPPCWERVCNSCFEGDSFGTDVNTVPSTIEKACPPILSPCKYSNRNLKDNPAESREKSNVTETDIAEINDKGGSGARDIKTARRRSLHLQIKRILESSKVRKTANDGDHGSEFLNTAKRGDVERDGCEVINNEDSEWKLDESEVQNLCNDGDNGSEGFIKAKSSDVEKDKSEAIDNDVISPAVGSGIKHTGADNVDKVTSASATGESLTSEQQNGLLVTTASPHSLLKDLAKSSKPEKKGISKKSGKILRSDDNVVDPMNYSGTKVKSAENKRKIDASKLQSPTSNVAEHSKEGLNNAKSNDVEKDVCVAINNEVISPVKGFGKRLSGTDVERLTSKNATKESLTSVQRKGRVKVSKAFQDPLSKGKSKKSEKTLQSNSNVVEPMNHFRSEAEEAEENLSWEKIKRKIDFDVEVTPEKKVKQQKTNAASTDSLGQKRSRSGRVLVSSLEFWRNQIPVYDMDRNLIQVKDGSETNSAPSKGKGSDSRKRRNLKIK

binding [2]: binds
B7: APC10 (Anaphase-Promoting Complex subunit 10) fused to the GAL4 activation domain (protein, UniProt Q9ZPW2 1-192)
chain: T3 sequence
